Whole data set: some 33,000 sequences, median “E-score (-0.5 to 0.5)” near -0.011, cut for the highest 2% near 0.28. The list shows a part of the results.
Molecular target: T1, Gcr1 (UniProt P07261)
T1 sequence: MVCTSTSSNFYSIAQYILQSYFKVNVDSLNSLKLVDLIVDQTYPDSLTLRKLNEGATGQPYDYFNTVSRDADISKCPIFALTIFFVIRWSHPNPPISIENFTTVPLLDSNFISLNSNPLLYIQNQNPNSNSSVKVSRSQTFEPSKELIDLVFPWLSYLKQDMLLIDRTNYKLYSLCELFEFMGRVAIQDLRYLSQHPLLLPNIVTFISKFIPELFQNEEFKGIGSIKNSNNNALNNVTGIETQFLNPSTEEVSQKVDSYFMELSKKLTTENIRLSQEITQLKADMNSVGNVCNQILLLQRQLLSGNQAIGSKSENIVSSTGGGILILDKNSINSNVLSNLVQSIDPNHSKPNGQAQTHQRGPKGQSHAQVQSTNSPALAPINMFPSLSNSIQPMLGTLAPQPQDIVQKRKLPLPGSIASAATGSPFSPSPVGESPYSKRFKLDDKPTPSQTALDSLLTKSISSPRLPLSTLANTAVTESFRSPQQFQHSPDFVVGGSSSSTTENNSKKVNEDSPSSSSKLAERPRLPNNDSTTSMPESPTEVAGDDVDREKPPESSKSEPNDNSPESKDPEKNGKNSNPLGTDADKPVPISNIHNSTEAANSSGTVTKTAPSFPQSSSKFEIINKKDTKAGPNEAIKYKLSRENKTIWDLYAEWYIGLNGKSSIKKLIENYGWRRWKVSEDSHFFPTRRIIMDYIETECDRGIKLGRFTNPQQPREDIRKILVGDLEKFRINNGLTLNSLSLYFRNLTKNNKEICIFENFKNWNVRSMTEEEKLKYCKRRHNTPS
Assay: PBM E-score (8-mer binding enrichment) (E-score (-0.5 to 0.5)); higher = stronger / more preferred TF binding; most listed sequences are background and not binding sites
Settings: protein concentration: 100 nM; construct: GST-full length
Procedure, shortened: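 Masliner-normalised scans of fluorescent anti-GST signal were the basis for scoring. That signal came from GST-tagged yeast transcription factors applied at about 100-200 nM to double-stranded universal all-10-mer Agilent arrays on fresh or once-stripped slides. Each ungapped eight-base word, pooled with its reverse complement, received an E-score from the Universal PBM Analysis Suite.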

Sequence	PBM E-score
AGTATCGC	0.161
ATTCAGGA	0.282
ATAGAGGC	0.174
CCATATGA	0.0373
TCTCTAAA	0.00221
GCGGCGCC	0.324
GCACGCCA	-0.0682
ATTGTTCG	-0.0518
CAACCGAG	-0.266
GCTCGAAA	0.036
ATCTCCTG	0.115
CCCACCGC	-0.127
GACCTCAA	-0.144
CAGCGAAG	-0.173
AAAGCTGT	-0.0926
GCCAATAA	0.201
CTTCTTAC	-0.0205
TATAAAGA	-0.0258
CCCGGCCC	0.0317
ACTAAGTC	-0.0346
ACTATCGC	-0.164
GCGGGGCC	0.131
ACAGTCCG	-0.19
ACCCTATG	-0.057
CGTATTAA	0.114

Sequence	PBM E-score
AGCTAGGG	0.02
ACTCTCGA	-0.111
CAGCCCAC	-0.0398
AACAAAAT	0.119
CAGGCTCC	0.119
AACCATCC	-0.131
AACCTACC	-0.0387
AATGAACG	-0.133
AATACGAG	0.0404
CGAACACC	-0.135
CATAGTTC	-0.035
CTGGGGGA	-0.108
CAATGGGG	0.00495
CCGCTCTA	0.0454
AGGAGGAC	-0.227
CGGCATTA	0.116
CCCAGCGG	0.0358
ATTGGGCC	0.138
AACCACGG	-0.173
ATATAATC	-0.0288
GCATGGCC	-0.149
GCCTTCCC	-0.185
TCGTACGA	-0.274
AGCGAACC	-0.113
AGGTCACT	-0.0258

Sequence	PBM E-score
ACGGTAGG	-0.221
AGTGGAAC	0.364
CTGGGTAC	0.121
CAGGCTTA	-0.172
TCCGTAGA	0.0594
TAAACCTA	0.024
ATGATCTA	-0.0433
CGATAGCA	-0.177
CTCATCAA	0.0408
CATACGGC	-0.262
GATATAGA	0.0968
AGGGCGCC	0.399
ATTCGCTA	-0.14
AAACCGTA	0.0594
AATCATCC	-0.0883
CCTTCTAG	-0.0861
CTGTCTGC	-0.0895
AGGCTAGA	-0.101
ACTAGGCT	-0.00625
CACGCACC	0.0442
ACCAGTAC	0.0315
ACGGTTGG	-0.00426
CGACCCCA	-0.00458
CTCAACCA	0.0391
CGGTGCGC	-0.109

Sequence	PBM E-score
CACTGCTC	0.0126
GGTTATAC	-0.0154
CACGTCTA	-0.0627
CGCACGAG	0.00045
CTATACAG	0.00024
AGTTCTTA	-0.114
ATATACCC	-0.0594
CGCGAGCG	-0.00528
ATGAGAAT	0.0213
AAGACACT	-0.1
AGGTCTGG	-0.171
GACATACC	-0.198
ATACACTG	0.033
GCTGGGAC	-0.138
ACACTCGG	0.0311
AATCACTG	0.0615
GTATGAAC	-0.0577
AATCTTTC	0.0966
GCACCCTA	0.297
AATCCGTA	-0.045
GGGGTAAA	-0.199
AGTAGGAG	0.0108
AGAAGGTG	0.155
GGGACTGA	-0.201
CTGGATGA	0.0353

Sequence	PBM E-score
CCGCTAGA	-0.00443
AGAAAGCT	-0.312
TCAGATAA	-0.0721
CGAAGAGA	0.0171
AGGCATCA	-0.162
CGCCGACC	-0.117
CCGCACCC	0.184
ACGCCCAG	0.203
GGCGGGCA	-0.0479
ACGGACCT	-0.117
AGGAAGCG	0.354
AGATCGCA	-0.185
AACAGTCC	-0.291
TAGTCGAA	0.0281
AGTACGAA	-0.0797
GCTGGCGA	0.146
CAGTGGAC	-0.0204
ATGCCTCA	-0.124
CGGAGCAG	0.0182
GTAGTAGA	0.115
CAACAACA	-0.00729
CGCCAGCA	-0.0899
TATATGCA	0.148
ATGCGTAG	-0.184
ACGATACT	-0.00437

Sequence	PBM E-score
AATGCCAG	0.106
CCTGCATC	0.162
ATTATAGC	0.103
CGGCGAGA	-0.18
ATGCCACC	-0.181
CTACATAC	0.079
ATTATCCA	0.0984
CTGTGTTA	-0.145
GGTTTCTA	0.249
CCGGCCAA	-0.0652
GTCGTTCA	-0.0179
GATTTAAC	-0.145
CTACGGCA	0.0224
AATTGTGG	0.166
ACAGGTCG	0.0483
AACCAACC	-0.19
ATAGTTAC	0.0357
GGTGTAAA	-0.0862
CTACACTA	0.0262
CTTACTTA	-0.0912
CACGTTAC	-0.0289
CTGTAGGC	-0.115
TCTCATCA	-0.105
ATTAATCG	0.0955
GGCTCTGA	-0.09

Sequence	PBM E-score
GTGGGGCA	0.0277
ATCACTTA	-0.176
CTAGGGAG	0.0107
TGGTCCAA	-0.0643
ACACGATA	0.0731
GAAAGCAA	-0.188
GACCTAAA	0.137
AGGTAGGA	-0.00243
GTGTAGTA	-0.0745
CTGGCTGA	-0.225
AACGTCGT	-0.0165
AGGGTCAT	-0.311
AGCGTACG	-0.221
GGGCCCCC	-0.0699
AACCCCGA	0.0757
TGAGCGAA	-0.0526
CTAGAACA	0.0582
CCGTAAGA	-0.0115
ACCTTAGC	-0.209
CTCAAAGC	-0.181
AAGGCCCT	-0.139
CCCACCAA	0.159

From the supplement of paper PMC3334620
